Measurements taken from PubChem BioAssay AID624417 (National Center for Advancing Translational Sciences (NCATS), 2012).
The campaign covered roughly 410,000 compounds. About 6,400 (1.6%) were called active. Inconclusive results, whose numbers are uncertain, are shown with a selection of clear calls. Calls come from the whole dose curve; as a rule, active = well fitted inhibition curve with a large enough effect; inconclusive = small, poorly fitted or top-dose-only effect; inactive = no such curve, though single readings can be large or run the other way. No potency is given beside an inconclusive call; the fits are too rough.
% is set by controls: 0 for no effect and ±100 for the full control effect; potency is the fitted concentration of half-maximal effect; tags give direction and shape of the fitted curve.
Note: nearly all actives have a fitted effect of over 55% in size.

The compounds below were run against Glucagon-like peptide 1 receptor (Homo sapiens) (UniProt P43220) (assay: qHTS of GLP-1 Receptor Inverse Agonists (Inhibition Mode)). Conditions: HEK293 GLP-1R CRE-luciferase, luminescence, 24 h, GLP-1R form is constitutively active; activity change, negative = inhibition: at 38.3 µM (top of the series) unless noted.
Sequence of UniProt P43220 (P43220 whole entry, looked up): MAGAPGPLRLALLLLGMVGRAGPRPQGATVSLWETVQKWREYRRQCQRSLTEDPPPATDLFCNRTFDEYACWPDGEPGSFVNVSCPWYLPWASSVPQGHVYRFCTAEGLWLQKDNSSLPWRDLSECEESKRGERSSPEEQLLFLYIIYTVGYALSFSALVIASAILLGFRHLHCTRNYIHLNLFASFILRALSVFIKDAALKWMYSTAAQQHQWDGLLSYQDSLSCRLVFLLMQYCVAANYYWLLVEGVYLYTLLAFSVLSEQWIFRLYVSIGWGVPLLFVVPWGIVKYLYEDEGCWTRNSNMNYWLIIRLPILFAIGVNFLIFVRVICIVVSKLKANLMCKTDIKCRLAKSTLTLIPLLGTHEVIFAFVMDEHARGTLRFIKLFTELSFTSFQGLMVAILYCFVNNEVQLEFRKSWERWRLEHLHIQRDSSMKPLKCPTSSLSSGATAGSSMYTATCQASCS
In short: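 Inverse agonism was detected as reduced cAMP-driven luciferase luminescence after 24 h compound treatment. The cells were HEK293 clones expressing constitutively active human GLP-1R with the reporter. Reporter-only and GPR119 cell lines served as counterscreen controls.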
`COc1ccc(NC(=O)CN2CCN(CC(=O)Nc3ccc(F)cc3)CC2)cc1Cl` was tested, and the Potency was inconclusive [inhibitor, partial curve, poor fit]. `O=C(c1ccc(Cl)cc1)c1oc2ccccc2c1CS(=O)(=O)c1ccccc1` was tested, and the Potency was inconclusive [inhibitor, full curve]. For `C/C(=N\Nc1nc2ccccc2[nH]1)c1ccc2c(c1)OCO2`, the Potency was inconclusive [inhibitor, partial curve, poor fit]. In the case of `COc1ccc(NC(=O)C(c2ccccc2)N2CCN(c3ccccn3)CC2)cc1Cl` (stereo not given), the Potency is reported as inconclusive [inhibitor, partial curve, poor fit]. In the case of `O=C1Cc2ccccc2C(c2ccc(Cl)cc2)N1` (stereo not given), the Potency is reported as inconclusive [inhibitor, partial curve]. With `O=C(Nc1cccc2ncccc12)c1ccc([N+](=O)[O-])o1` the “activity change, negative = inhibition” value was inactive: 49.2%. For `CCN(CC)CC#CC(OC)(c1ccccc1)c1ccccc1`, the Potency was active: 5.01 µM. `N#Cc1ccccc1OCCCN1CCC(C(O)(c2ccccc2)c2ccccc2)CC1` was tested, and the Potency was inconclusive [inhibitor, single point]. With `COc1ccc(N(CC(=O)Nc2nc3ccc(C)cc3s2)S(=O)(=O)c2c(C)nn(C)c2C)cc1` the Potency was inconclusive [inhibitor, single point]. With `O=C1N[C@H](Cc2ccccc2)COC(=O)[C@H](Cc2ccc(F)cc2)C/C=C\C[C@@H]1CC(=O)N(CCO)Cc1ccccc1` the Potency was inconclusive [inhibitor, single point]. For `Cc1onc(-c2ccccc2Cl)c1C(=O)N1CCN(c2cccc(Cl)c2)CC1`, the Potency was active: 1 µM. `CC(NC(=O)c1ccco1)C(c1cccs1)N1CCN(c2ccccc2F)CC1` (stereo not given) was tested, and the Potency was inconclusive [inhibitor, single point]. `CC(=O)Nc1cccc(-c2ccnc3c2CC(C(=O)NCC2CCOCC2)O3)c1` (stereo not given) was tested, and the Potency was inconclusive [inhibitor, partial curve]. For `COc1ccccc1NC(=O)c1cc(S(=O)(=O)NCCC2=CCCCC2)ccc1F`, the Potency was inconclusive [inhibitor, single point]. `O=C(NCc1cccc(Cl)c1)C1CCCN(c2ncnc3onc(-c4ccc(F)cc4)c23)C1` (stereo not given) was tested, and the Potency was inconclusive [inhibitor, single point]. For `CCn1c(=O)cc(SCC(=O)N2CCN(c3ccccc3F)CC2)c2ccccc21`, the Potency was inconclusive [inhibitor, partial curve, poor fit]. For `O=C(CCCc1nc2ccccc2s1)N1CCN(c2ccccc2F)CC1`, the Potency was inconclusive [inhibitor, single point]. With `Cc1ccc(OCC(=O)NC2CCSc3ccccc32)cc1` (stereo not given) the Potency was inconclusive [inhibitor, single point]. For `COc1cccc(NC(=O)CN(C)C(=O)c2cc(C3CC3)nn2-c2ccccc2)c1`, the Potency was inconclusive [inhibitor, partial curve, poor fit]. With `Cc1ccccc1CN1CCCN(CC(=O)Nc2ccc3c(c2)OCCO3)S1(=O)=O` the “activity change, negative = inhibition” value was inactive: -18.9%. In the case of `COc1ccc(NC(=O)CCc2c(C)nc3c(-c4ccc(F)cc4)c(C)nn3c2C)c(OC)c1`, the “activity change, negative = inhibition” value is reported as inactive: -5.72%. For `NN/C(=C\[N+](=O)[O-])Nc1ccccc1`, the “activity change, negative = inhibition” value was inactive: 24.6%. For `Brc1ccc2nc(SCCOc3ccccc3)[nH]c2c1`, the Potency was inconclusive [inhibitor, single point]. For `CCOC(=O)NC(NC(=S)Nc1ccccc1OC)C(Cl)(Cl)Cl` (stereo not given), the Potency was inconclusive [inhibitor, single point]. `CCOc1cc2[nH]c(=S)n(CCCC(=O)NCc3ccco3)c(=O)c2cc1OCC` was tested, and the “activity change, negative = inhibition” value was inactive: 4.07%. `Cc1ccc(SCCC(=O)Nc2ccccc2Br)cc1` was tested, and the Potency was inconclusive [inhibitor, single point]. In the case of `Cc1occc1C(=O)N1CCCC(CO)(Cc2ccc(F)cc2F)C1` (stereo not given), the Potency is reported as inconclusive [inhibitor, single point]. `COc1ccccc1C(=O)NCCC(=O)NCC(c1ccccc1)N(C)C` (stereo not given) was tested, and the “activity change, negative = inhibition” value was inactive: 0.803%. `CC(=O)Nc1nonc1-c1nc2ccccc2n1Cc1ccccc1Br` was tested, and the “activity change, negative = inhibition” value was inactive: -8.37%. With `O=C1c2ccccc2C(=O)N1CC(O)COc1cccc2ccccc12` (stereo not given) the “activity change, negative = inhibition” value was inactive: 1.52%. With `CC1(C)Cc2cccc(OCC(=O)N3CCN(c4ccccc4F)CC3)c2O1` the Potency was inconclusive [inhibitor, partial curve, poor fit]. In the case of `Fc1ccc(CSc2nnc3ccccn23)c(Cl)c1`, the activity change, negative = inhibition is reported as inactive: 14.5% [at 0.307 µM]. With `COc1ccc2c(c1)OC13CCN(C)CC1C2C(C(=O)c1ccc(F)cc1)C(=O)N3` (stereo not given) the Potency was inconclusive [inhibitor, single point]. With `C=CCn1c(SC(C)C(=O)NCCC2=CCCCC2)nc2ccccc2c1=O` (stereo not given) the Potency was inconclusive [inhibitor, single point]. In the case of `COc1cccc(NC(=O)CN(C)C(=O)C(C)Sc2ccccc2)c1` (stereo not given), the Potency is reported as inconclusive [inhibitor, single point]. For `CCOC(=O)C1(CCOc2ccccc2)CCN(Cc2cc(OC)c(O)cc2Cl)CC1`, the Potency was inconclusive [inhibitor, partial curve, poor fit]. For `CCOC(=O)C(/C(C)=N/NC(=O)C1CC1c1ccccc1)C(C)C` (stereo not given), the Potency was inconclusive [inhibitor, single point]. In the case of `O=C(Nc1ccc(F)cc1)c1ccc(CSc2ccccc2)o1`, the Potency is reported as inconclusive [inhibitor, single point]. `CCCOc1cccc(-c2nnc(NC(=O)c3ccco3)s2)c1` was tested, and the Potency was inconclusive [inhibitor, partial curve, poor fit]. With `COC(=O)c1cn(Nc2ncc(C(F)(F)F)cc2Cl)c(=O)c2ccccc12` the Potency was inconclusive [inhibitor, partial curve]. With `CCC(C)(C)C1CCc2c(sc(NC(=O)c3ccccc3C(=O)O)c2C#N)C1` (stereo not given) the Potency was inconclusive [inhibitor, partial curve, poor fit]. For `Cn1c(=O)c(C(=O)NNC(=O)c2cccc(Cl)c2)c(O)c2ccccc21`, the Potency was inconclusive [inhibitor, full curve]. For `Cc1nn2cc(-c3ccc(Cl)cc3)cnc2c1Cl`, the “activity change, negative = inhibition” value was inactive: 32.9%. With `O=C1/C(=C/c2ccco2)SC(=S)N1C1CCS(=O)(=O)C1` (stereo not given) the Potency was inconclusive [inhibitor, partial curve, poor fit]. For `CCOC(=O)[C@H]1[C@H]2COc3ccc(Cl)cc3[C@@H]2N2C(=O)c3cc(OC)ccc3NC(=O)[C@@]12C`, the Potency was inconclusive [inhibitor, partial curve, poor fit]. For `O=C(NCCCn1ccnc1)c1c(F)cccc1F`, the Potency was inconclusive [inhibitor, full curve, poor fit]. For `CS(=O)(=O)Nc1cccc(NC(=O)c2ccc(-c3ccc(F)c(F)c3)c3ccoc23)c1`, the Potency was inconclusive [inhibitor, single point]. For `O/N=C/c1ccc(OCc2ccccc2)c(Cl)c1`, the Potency was inconclusive [inhibitor, single point]. For `CC(=O)N1CCCN(Cc2nc(C3(c4ccc(C)cc4)CCCC3)no2)CC1`, the “activity change, negative = inhibition” value was inactive: -15%. With `COc1cc(/C=N/NC(=O)c2cc(O)cc(O)c2)ccc1OC(=O)c1ccccc1` the Potency was inconclusive [inhibitor, partial curve, poor fit]. For `Cc1ccccc1N1CCN(C2CCCN(C(=O)CSc3ccccn3)C2)CC1` (stereo not given), the Potency was inconclusive [inhibitor, partial curve, poor fit]. In the case of `CN(C)C(=O)COC(=O)c1cccc(S(=O)(=O)Nc2ccc(OCc3ccccc3)cc2)c1`, the Potency is reported as inconclusive [inhibitor, single point]. With `O=C(CSc1nnc2[nH]c(=O)cc(-c3ccccc3)n12)Nc1cc(C(F)(F)F)ccc1Cl` the “activity change, negative = inhibition” value was inactive: 5.24%. `Cc1ccccc1OCCC(=O)Nc1ccc(S(=O)(=O)N(C)C2CCN(C)CC2)cc1` was tested, and the Potency was inconclusive [inhibitor, partial curve, poor fit]. With `Cc1nc2ccccc2c(C)c1C(=O)c1ccccc1` the Potency was inconclusive [inhibitor, partial curve, poor fit]. With `O=C(Cc1cccc2ccccc12)Nc1ccc(OC(F)F)c(Cl)c1` the Potency was inconclusive [inhibitor, partial curve, poor fit]. With `CCn1c(SCC(=O)Nc2ccccc2-c2ccccc2)nnc1-c1ccoc1C` the Potency was inconclusive [inhibitor, single point]. For `O=C1Nc2ccc(Br)cc2C1=C1CCCCC1`, the Potency was inconclusive [inhibitor, partial curve, poor fit]. `CC(=O)N(CCC(c1ccccc1)c1ccco1)Cc1cccs1` (stereo not given) was tested, and the Potency was inconclusive [inhibitor, partial curve, poor fit]. `Cc1ccc(C)c(-c2csc(N/N=C/c3ccco3)n2)c1` was tested, and the Potency was inconclusive [inhibitor, single point]. In the case of `O=S(=O)(c1ccc(OCC(O)CN2CCC(Cc3ccccc3)CC2)cc1)N1CCOCC1` (stereo not given), the “activity change, negative = inhibition” value is reported as inactive: 0.257%. With `COc1ccc(Cc2c(-c3ccc(C)cc3)nc3c4ccccc4ccn23)c(C)c1` the Potency was inconclusive [inhibitor, partial curve, poor fit]. `CC(C)N1CC(=O)N2CSCC2C1=O` (stereo not given) was tested, and the “activity change, negative = inhibition” value was inactive: 32.7%. `CC(C)(C)CC(C)(C)SSc1n[nH]c(=S)s1` was tested, and the “activity change, negative = inhibition” value was inactive: 30.3%. In the case of `CCOC(=O)CNC(c1ccccc1)c1cc(Br)ccc1NC(C)=O` (stereo not given), the Potency is reported as inconclusive [inhibitor, single point].
